# Laboratory results reported in publication PMC4336329 (PLoS ONE, 2015).
# Out of some 310,000 compounds screened, about 14,000 (4.5%) showed an effect of 50% or more. The effect is printed as a negative number. The list shows a part of the results.
# Biological target: human ether-à-go-go-related gene (hERG) potassium channel (human, UniProt Q12809)
# Assay: primary screen, population patch clamp on CHO cells stably expressing hERG
# 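Further: peak tail current of the secondary pulse compared with the same well before compound.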
# Chain of human ether-à-go-go-related gene (hERG) potassium channel (Q12809 whole entry, looked up): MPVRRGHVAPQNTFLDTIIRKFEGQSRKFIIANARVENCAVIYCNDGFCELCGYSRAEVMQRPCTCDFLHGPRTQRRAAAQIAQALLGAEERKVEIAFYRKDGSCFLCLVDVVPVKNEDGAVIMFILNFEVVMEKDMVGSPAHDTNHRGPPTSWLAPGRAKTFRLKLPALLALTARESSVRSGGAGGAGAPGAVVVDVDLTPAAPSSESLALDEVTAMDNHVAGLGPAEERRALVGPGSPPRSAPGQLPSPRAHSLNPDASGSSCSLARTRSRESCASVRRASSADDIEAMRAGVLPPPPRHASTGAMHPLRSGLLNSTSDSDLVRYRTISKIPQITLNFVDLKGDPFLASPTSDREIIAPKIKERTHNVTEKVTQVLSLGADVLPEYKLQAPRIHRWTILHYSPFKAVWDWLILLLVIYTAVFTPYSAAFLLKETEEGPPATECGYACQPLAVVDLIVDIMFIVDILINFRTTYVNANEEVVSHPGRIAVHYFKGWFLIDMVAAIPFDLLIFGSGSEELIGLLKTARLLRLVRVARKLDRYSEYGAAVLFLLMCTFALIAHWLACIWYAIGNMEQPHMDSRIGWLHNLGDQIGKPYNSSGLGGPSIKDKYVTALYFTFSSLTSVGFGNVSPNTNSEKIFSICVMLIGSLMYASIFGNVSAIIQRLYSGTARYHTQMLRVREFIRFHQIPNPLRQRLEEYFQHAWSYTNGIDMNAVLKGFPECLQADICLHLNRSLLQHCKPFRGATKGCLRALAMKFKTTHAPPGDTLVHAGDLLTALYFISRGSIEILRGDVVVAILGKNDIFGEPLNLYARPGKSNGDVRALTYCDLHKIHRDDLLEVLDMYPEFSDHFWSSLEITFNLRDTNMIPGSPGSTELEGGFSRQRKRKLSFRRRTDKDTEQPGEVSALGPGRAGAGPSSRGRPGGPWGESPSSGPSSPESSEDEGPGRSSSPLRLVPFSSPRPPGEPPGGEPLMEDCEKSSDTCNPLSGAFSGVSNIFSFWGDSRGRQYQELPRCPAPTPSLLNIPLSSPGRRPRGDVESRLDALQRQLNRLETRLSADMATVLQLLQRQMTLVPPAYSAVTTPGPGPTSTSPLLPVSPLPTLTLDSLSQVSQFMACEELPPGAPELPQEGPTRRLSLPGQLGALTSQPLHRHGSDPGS
row,SMILES,"hERG current change (%, negative = inhibition) at 10uM"
1,COc1ccc(CCNC(=O)c2cc(C)oc2C)cc1,11.3%
2,COc1cc(-c2nc(-c3ccccn3)no2)cc(OC)c1OC,3.76%
3,CCN(CC)C(=O)c1cn(CCC#N)nc1-c1ccc2c(c1)OCCO2,15.7%
4,COc1cccc(C=Nc2cc(C)cc(C)c2)c1O,-1.33%
5,O=C(CN1C(=O)S/C(=C\c2cc(Cl)c(O)c(Cl)c2)C1=O)Nc1ccccc1,34.4%
6,COc1cc(NC(=O)C2CC(=O)N(CCc3ccc(F)cc3)C2)cc(OC)c1OC (stereo not drawn),2.1%
7,CCOC(=O)c1ccc(S(=O)(=O)NNC(=O)COc2ccc(C)cc2)cc1,20.7%
8,CN(C)c1ccc(-c2ccc([C@H]3[C@@H]4C=CCC[C@@]4(C)C(=O)N3Cc3ccccc3)c(F)c2)cc1,8.03%
9,Cc1nnn(C23CC4CC(CC(CC(=O)Nc5cccc(F)c5)(C4)C2)C3)n1,-20.3%
10,Cc1ccc(-c2csc(N(CCO)CCCn3c(C(F)(F)F)nc4cc(C(F)(F)F)ccc43)n2)cc1,12.7%
11,CC1CCCC(C)N1C(=O)COC(=O)c1n[nH]c(=O)c2ccccc12 (stereo not drawn),-6.1%
12,Cc1cccc(NC(=O)CCN2C(=O)c3ccccc3C2=O)c1,-8.68%
13,CC(Sc1ccc(Cl)cc1)C(=O)Nc1ccccc1-c1ccccc1 (stereo not drawn),11.6%
14,CC(C)c1onc(C(=O)NCc2ccccc2)c1[N+](=O)[O-],7.38%
15,COc1ccc(C(=O)COC(=O)c2cnc(C)cn2)c(OC)c1,-18.7%
16,Cc1csc2c(N3CCN(S(=O)(=O)c4ccc(Cl)cc4)CC3)ncnc12,16.4%
17,COc1cccc(CNC(=O)C2CCN(S(=O)(=O)N3CCC4(CC3)OCCO4)CC2)c1,-9.91%
18,CC1(C)CC(=O)C(C=Nc2ccc(C(=O)c3ccccc3)cc2N=CC2=C(O)CC(C)(C)CC2=O)=C(O)C1,-18.5%
19,CC1C[C@@]2(NC(=O)NC2=O)C(C)CN1C (stereo partly drawn),21.2%
20,OCCN(Cc1ccccc1)C(=S)NC1CCCCC1,17.9%
21,CNCCCCOc1ccc(C(C)(C)C)cc1Cl.O=C(O)C(=O)O,-12.7%
22,O=[N+]([O-])c1cccc(S(=O)(=O)N/N=C\c2ccc3c(c2)OCO3)c1,5.33%
23,Cc1ccccc1-n1c(-c2ccoc2C)n[nH]c1=S,15.5%

row,SMILES,"hERG current change (%, negative = inhibition) at 10uM"
1,COC(=O)C1=C(C)Nc2nnnn2C1c1cccnc1 (stereo not drawn),12.2%
2,CCCNC(=O)C1CC(=O)N(c2ccc(OCc3ccc(Cl)cc3)cc2)C1 (stereo not drawn),11.9%
3,N[C@@H](Cc1ccccc1)C(=O)N1CCC(C(=O)NCC(=O)Nc2ccc(F)cc2)CC1,12.3%
4,Cc1cc(C(=O)NCC23CC4CC(CC(C4)C2)C3)c(C)o1,-13.7%
5,CC(C)c1nn2c(N)c(/C=C3\C=Nc4ccccc43)c(=O)nc2s1,18%
6,CSc1nnc(-c2cc(C)on2)n1-c1ccccc1,7.8%
7,O=C(O)c1ccccc1NS(=O)(=O)c1cccc(-n2sc3ccccc3c2=O)c1,30.4%
8,Nc1ncnc2c1c(-c1ccc(Oc3ccccc3)cc1)cn2C1CCCC1,10.5%
9,Cc1ccsc1C(=O)N1CCCC(CO)(Cc2ccccc2)C1 (stereo not drawn),-3.04%
10,O=C(CSc1nnc(Cc2cc(=O)[nH]c(=O)[nH]2)n1-c1ccc(Cl)cc1)N1CCc2ccccc21,14%
11,O=C(c1cccs1)N1CCCC(c2nc3c(nnn3Cc3cccc(Cl)c3)c(=O)[nH]2)C1 (stereo not drawn),-36.6%
12,CC(=O)Nc1ccc(S(=O)(=O)N(Cc2cccnc2)Cc2cc3ccccc3[nH]c2=O)cc1,11.4%
13,Cc1ccc(CNCc2ccco2)cc1.O=C(O)C(=O)O,2.8%
14,CC(=O)N1N=C2C3CCN(CC3)C2C1c1cccc2ccccc12 (stereo not drawn),2.64%
15,Cc1cc(C)c(S(=O)(=O)NC(C)C)c(C)c1-n1cnnn1,11.9%
16,Cc1cc(NC(=O)c2cc(C(C)C)on2)nn1Cc1ccc(Cl)cc1,7.56%
17,Cn1cc(C(=O)N2CCN(c3ccccn3)CC2)c(=O)c2cc(S(=O)(=O)N3CCOCC3)ccc21,-9.72%
18,COc1ccc(NC(=O)CC(Cc2ccc(Cl)cc2)C(=O)O)cc1 (stereo not drawn),11.9%
19,Cc1cc(C)cc(N(CC(=O)NCc2ccc(F)cc2)C(=O)CCC(=O)Nc2ccccn2)c1,18.7%
20,CSCCC1NC(=O)N(C(C)C(=O)Nc2cc(Cl)cc(Cl)c2)C1=O (stereo not drawn),-5.88%
21,COc1ccc(/C=N/Nc2nc(C)c([N+](=O)[O-])c(N(C)c3ccccc3)n2)cc1OC,6.54%
22,CC(=O)c1ccc(N=C2C(=O)Nc3ccccc32)cc1,12.2%
